According to the RNAGym collection of RNA variant scans (doi:10.7554/elife.90254):
The source gives no read counts; variants with many changes may rest on few reads.

B1: LINE1-mini (parent)
chain: GGCAGAGCUCAACACAGCGUGGCAAAGUGGCUGUGGCUAGACUGCC

Variants of: B1
Experiment: self-cleavage, relative activity (ratio to wild type); higher = more cleavage; in vitro, sequencing; the parent is a self-cleaving ribozyme

Variant | self-cleavage
G29U U38A A41C | 0
C23G A24C C42U | 0.07
A12G G22A A24G G27U | 0.02
A4G C18A U28G C42G | 0.02
C10U G17C A24G G27U U32G | 0.01
C8U C18A G44U | 0.05
G1U C23A A25U G44A | 0.09
A4G C23A G40A C42U | 0.03
A11C A12G A26U | 0
A4C G30U G33C | 0.36
A6U C37A A41C C46A | 0.01
U20G C31U G36A | 0.05
A16U A25U C46G | 0.06
C8U G21U C46G | 0
A6U C18A G22A G40C | 0.28
C3U G7A G30C A39U | 0.75
G22A C23A U43G | 0.03
C18G G21C G22C | 0.47
G1U C13U U34A C42G | 0.01
A4C G7A C18A A26G G29U C45U | 0.14
C8A G22U U28G U32C A41U | 0.07

Variant | self-cleavage
A6U U28C C46G | 1.11
C10G C15A U32C | 0.01
C10G G27C G29C | 0.51
G19C U32C C37G | 0.03
A11G A12C C15U A25U U32C G40A C45U | 0
G7U C8A U9G A16G G29U C31G G33U G36A | 0.01
C8A C13A G30C C42G | 0.13
G17C C18U A26U | 0.07
A4G G5A A12C A16C | 0
G7C A16U A25G G30U | 0.03
G7U G22A G30U A39U G40U | 0.19
G17A A41U C42G | 0.02
U9G U28C G44U | 0.04
C13G C31G A39G | 0.04
A16U C37G C42A | 0.05
G2C G33A U34C | 0.03
C3U U28C C37A C42U | 0.08
G5C C18U G36C | 0.03
G2U C8A U9A G30C C45A | 0.03
G5A A12G U20C G29U | 0.02
G5A C23U C45U | 0.13

Variant | self-cleavage
C3G C10A U28G C37A | 0.04
C31A A39G A41C | 0.03
G2U G17C C46A | 0.02
A26C G35U A41C C42A | 0.01
C23A G29U G36A | 0.04
A4C G7A C23U U38A U43A | 0.2
A6C C13A A14U A16U G21A | 0.04
C13G C18A U20G G29U C45U | 0.01
A6C G22U A39C U43C | 0.1
G17C G21U U34C | 0
G1A A16U G17A U34C | 0.04
A6C A25U A39C C46A | 0.58
A25U G35U A41C | 0.04
U9A G21C A25C | 0.21
A12G C15U C31U G40U | 0
A6G G21C A24U U38C | 0.05
A12C G19A G21A G22C A39U | 0.01
G21U G30U C37A | 0.04
G35U G36A C46A | 0.08
G7U C8A G19C G36U U38G | 0.02
G2C A26G G30C G35A A41G | 0.13

Variant | self-cleavage
U20C G21A C31A | 0.35
G7U G21A G35C | 0.07
C15A G19C G22A A39G A41C | 0.01
C8U G30C G40C | 0.07
C10A G21C A41U | 0.03
C3A G7C C18U G33C | 0.06
C10A A11C U28A G30A | 0.02
G2U A14G G36A | 0.01
A12U G27A U32G U43G | 0
A14C G21A G22C A24C | 0.03
C13U G29U G35U | 0.41
G7U A14C G30A U38C | 0.09
G5C G7U C8U A14G | 0.35
C10A G17C G21A C31G G33A C45G | 0.01
C8A A11U G22U A25C C31A | 0.03
C8G A12U U28C U32G | 0.07
C8U G22A G33A G40C | 0
A6C U9C A25G C45G | 0.03
C8U C10G U20G U28G U38G A39G | 0
G7U G19U U20C G30A | 0.08
